The record followed here is article PMC6212790.

The list shows a part of the results. At the low end of the ranking the order means little.

The assay deals with T1, GST-Rok-C97-191 (UniProt O34857).
T1 sequence: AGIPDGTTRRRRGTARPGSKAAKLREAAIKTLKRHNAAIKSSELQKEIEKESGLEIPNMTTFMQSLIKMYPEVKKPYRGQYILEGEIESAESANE
In words: protein binding microarray.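 Also: rank score from −0.5 (least bound) to 0.5 (best bound).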 As to conditions: Rok is a gene silencer of Bacillus subtilis; high values mean tight binding; most listed sequences are background and not binding sites; double strand, one strand shown.
The sequence CAGCGTAA gave a binding signal of 0.0908 E-score.

The sequence AGCAGTAG returned a binding signal of 0.228 E-score.

CAATGTCC came in with a binding signal of -0.155 E-score.

Consider ATGGAAGC, for which the binding signal is -0.0449 E-score.

AACCGGCA had a binding signal of 0.151 E-score.

ATGCACCG yielded a binding signal of 0.00829 E-score.

The sequence ATTTTTCA gave a binding signal of -0.125 E-score.

The sequence AGGCCGTG yielded a binding signal of -0.285 E-score.

Sequence TACCTCGA registered a binding signal of 0.119 E-score.

ATTCAGCC returned a binding signal of -0.143 E-score.

Turning to AGGACGGG, the binding signal was -0.0999 E-score.

For ACTTTATC, the binding signal stood at 0.19 E-score.

CAGGACGC gave a binding signal of -0.291 E-score.

For GTCCCAAC, the binding signal was -0.0819 E-score.

As to AATTTGGC, the binding signal was 0.0996 E-score.

The sequence AGTCGAAA gave a binding signal of -0.0607 E-score.

In turn, GATGTGAC gave a binding signal of -0.0291 E-score.

Sequence GTAACAAA came in with a binding signal of 0.21 E-score.

For the sequence CGCCGGCC, the binding signal is -0.312 E-score.

For AGATGGTG, the binding signal is 0.08 E-score.

For GAGCATTA, the binding signal came out at 0.0334 E-score.

The sequence CGGGTGAC yielded a binding signal of -0.259 E-score.

GACTATAA showed a binding signal of 0.172 E-score.

Sequence CCTCCCAG showed a binding signal of -0.272 E-score.

In turn, CGCGATAA yielded a binding signal of 0.00964 E-score.

Consider CCGCCTGC, for which the binding signal was -0.42 E-score.

Turning to ATATATTA, the binding signal was found to be 0.447 E-score.

AGCCCGCA: the binding signal is -0.143 E-score.

In turn, CCGCTGAC came in with a binding signal of -0.125 E-score.

For the sequence ATCTAACA, the binding signal worked out at 0.192 E-score.

On to CTTAGCCA, for which the binding signal is -0.121 E-score.

The sequence AGAGAGAT gave a binding signal of 0.0965 E-score.

On to AACTCTCG, for which the binding signal was 0.1 E-score.

ACGCATAT: the binding signal came out at 0.108 E-score.

CGTCGTGA showed a binding signal of -0.0793 E-score.

CATGAACG registered a binding signal of 0.00655 E-score.

ACGAAACC yielded a binding signal of -0.0677 E-score.

On to ACAATCTC, for which the binding signal is -0.117 E-score.

With ACCCAGCT, the binding signal was -0.00933 E-score.

GGTATGTA returned a binding signal of 0.241 E-score.

In turn, CCACTCAG gave a binding signal of -0.0368 E-score.

Sequence CTGTGCGA yielded a binding signal of -0.237 E-score.

TAGACAGA gave a binding signal of 0.000902 E-score.

Turning to GCAACGAA, the binding signal was -0.0135 E-score.

In turn, AATTGCGC came in with a binding signal of 0.037 E-score.

For ACGGAGCG, the binding signal was -0.113 E-score.

Sequence ACTAGCGA yielded a binding signal of 0.126 E-score.

For AGCTTGGA, the binding signal was -0.101 E-score.

On to GTCAGCTA, for which the binding signal was -0.112 E-score.

In turn, GCCTGCAA displayed a binding signal of -0.165 E-score.

Turning to CTACAGGC, the binding signal is -0.133 E-score.

Consider GAGAGTCA, for which the binding signal was -0.203 E-score.

On to ACCTGCTG, for which the binding signal is -0.254 E-score.

In turn, CCTACATA showed a binding signal of 0.0626 E-score.

On to GCAGATAC, for which the binding signal is -0.00726 E-score.

The sequence CCAGCAGC returned a binding signal of -0.123 E-score.

In turn, ATCATTTC yielded a binding signal of -0.0795 E-score.

Sequence CTGAACAC registered a binding signal of -0.259 E-score.

CATTTATC yielded a binding signal of 0.218 E-score.

On to GGACAGAA, for which the binding signal is -0.145 E-score.

Take AAACGTTG: the binding signal is -0.172 E-score.

The sequence GGTTCGGA gave a binding signal of -0.284 E-score.

In turn, ATGCCGTC came in with a binding signal of -0.117 E-score.

Sequence CACCGTCC gave a binding signal of -0.124 E-score.

AGGGACAA returned a binding signal of -0.155 E-score.

For CTGTTACC, the binding signal was -0.105 E-score.

On to GATGAGTA, for which the binding signal turned out to be 0.158 E-score.

Sequence AGTTGAAG showed a binding signal of 0.191 E-score.

For the sequence AGGCGAAT, the binding signal was determined as 0.058 E-score.

For CACATTGG, the binding signal stood at 0.0438 E-score.

As to ATAGGAGC, the binding signal is -0.036 E-score.

As for CGATAGGA, the binding signal was -0.0106 E-score.

On to CTAATTAC, for which the binding signal turned out to be 0.382 E-score.

For the sequence ACAGTTCG, the binding signal is 0.19 E-score.

For the sequence ACGACGGG, the binding signal was -0.224 E-score.

In turn, AATTACAC yielded a binding signal of 0.304 E-score.

Consider CCACTTAA, for which the binding signal was found to be 0.00718 E-score.

Regarding AAAGACGG, the binding signal was found to be 0.129 E-score.

For the sequence GACCGGCC, the binding signal is -0.178 E-score.

Regarding CGCAAGGC, the binding signal is -0.332 E-score.

With GAGATTAC, the binding signal was found to be 0.0639 E-score.

On to AAATGGGC, for which the binding signal was -0.0731 E-score.

As to AAAGACCA, the binding signal was -0.0827 E-score.

GCCAACCC: the binding signal is -0.235 E-score.

Take CTTTTTCA: the binding signal is 0.0406 E-score.

The sequence CTACTATC returned a binding signal of 0.344 E-score.

The sequence TCCTTCGA yielded a binding signal of -0.145 E-score.

Consider AAGCCGTA, for which the binding signal was 0.13 E-score.

With GTATACCA, the binding signal was 0.267 E-score.

CGTTTCCA came in with a binding signal of -0.0556 E-score.

In the case of CAGTGCTA, the binding signal is -0.0266 E-score.

AGCGTCCA showed a binding signal of -0.0715 E-score.

In turn, ATTTCTGA returned a binding signal of 0.0193 E-score.

Sequence AAACACCT yielded a binding signal of -0.0592 E-score.

In turn, GTGGAGAA had a binding signal of 0.071 E-score.

With CACATAAC, the binding signal was found to be 0.0703 E-score.

Sequence GAGCCAGC registered a binding signal of -0.313 E-score.

Consider ACTTTTCT, for which the binding signal was 0.119 E-score.

On to GGAACTTA, for which the binding signal is -0.00528 E-score.

In the case of AGATATCT, the binding signal came out at 0.355 E-score.

For the sequence ATTAGGTG, the binding signal was determined as 0.179 E-score.

Regarding AAATTAAT, the binding signal came to 0.285 E-score.

GGGTCTTA had a binding signal of -0.219 E-score.

ACACACAG: the binding signal was determined as 0.093 E-score.

The sequence TGACAACA showed a binding signal of -0.0615 E-score.

AGAACACG showed a binding signal of 0.0807 E-score.

TACAATAA: the binding signal came out at 0.108 E-score.

In turn, ACAATTTG had a binding signal of 0.104 E-score.

As for CTTCTTTC, the binding signal is -0.0629 E-score.

On to CACATGTC, for which the binding signal is -0.0475 E-score.

GAGTGTAC gave a binding signal of -0.0119 E-score.

Consider AACGCAAT, for which the binding signal amounted to 0.22 E-score.

With GTTGCAAC, the binding signal was determined as 0.162 E-score.

CGCGCTCA had a binding signal of -0.186 E-score.

ACAGTCAG displayed a binding signal of -0.122 E-score.

ACCGGACC came in with a binding signal of 0.0114 E-score.

In the case of CGGCCGAC, the binding signal is -0.317 E-score.

Consider CCTGCTCA, for which the binding signal is -0.142 E-score.

The sequence GTCGCCAC had a binding signal of -0.207 E-score.

As for GTTTTGCA, the binding signal turned out to be 0.0567 E-score.

In the case of GCTTACAA, the binding signal is -0.194 E-score.

As to TCGACAGA, the binding signal is -0.151 E-score.

ACCGGGAG returned a binding signal of -0.154 E-score.

On to ATTAAGGG, for which the binding signal was -0.0333 E-score.

Sequence AGAAGGAT yielded a binding signal of 0.0236 E-score.

Sequence AGAGATTG yielded a binding signal of 0.0802 E-score.

As for CGGTGTGA, the binding signal came out at 0.0408 E-score.

The sequence ATATTCCC showed a binding signal of 0.19 E-score.

The sequence ATTTATTC displayed a binding signal of 0.0993 E-score.

Consider CAAATCTC, for which the binding signal came out at 0.0537 E-score.

Sequence CGACCGAC gave a binding signal of -0.157 E-score.

Take ACACTAAT: the binding signal turned out to be 0.308 E-score.

As for CGGTTACG, the binding signal is 0.0791 E-score.

In turn, CATATGCC registered a binding signal of -0.12 E-score.

In the case of ATTGTCCC, the binding signal is -0.213 E-score.

AGAGGATG gave a binding signal of 0.0363 E-score.

Consider ATTAGTTA, for which the binding signal was found to be 0.336 E-score.

GCAGCCAA had a binding signal of -0.0778 E-score.

The sequence CATGCGAG displayed a binding signal of -0.248 E-score.

The sequence GTACGATA showed a binding signal of 0.217 E-score.

Turning to AATGCCTA, the binding signal turned out to be 0.000871 E-score.

On to CCAGCTTC, for which the binding signal was -0.205 E-score.

Sequence GTGTTGGA yielded a binding signal of -0.0732 E-score.

In turn, GATAATAA registered a binding signal of 0.174 E-score.

Sequence AACCGACG came in with a binding signal of -0.147 E-score.

CAGGTTAG: the binding signal was -0.165 E-score.

With CACAATAA, the binding signal was 0.185 E-score.

CACTGTCG: the binding signal is -0.109 E-score.

GGAAAAAA came in with a binding signal of -0.0552 E-score.

Regarding CATAGAGG, the binding signal is -0.0283 E-score.

In turn, AACAAAAA showed a binding signal of 0.101 E-score.

ATGAGTAG: the binding signal is 0.281 E-score.

AGCATCTG came in with a binding signal of -0.0677 E-score.

CCACCCCG had a binding signal of -0.253 E-score.

The sequence CGCTGCTA yielded a binding signal of 0.0306 E-score.

The sequence ACGACCGT returned a binding signal of 0.00992 E-score.

On to AACCTTAT, for which the binding signal is -0.044 E-score.

As to ATCACCTA, the binding signal was 0.0381 E-score.

The sequence AAAGAGGC had a binding signal of -0.108 E-score.

In the case of AACGGGAA, the binding signal is -0.0937 E-score.

Consider GATACCGA, for which the binding signal amounted to 0.103 E-score.

As for ACCGGCGC, the binding signal is -0.232 E-score.

The sequence GCTCGAGA came in with a binding signal of -0.0729 E-score.

With AACACCGG, the binding signal was -0.0393 E-score.

CATAACCC came in with a binding signal of -0.224 E-score.

In turn, CTACCTGC showed a binding signal of 0.00887 E-score.

CTTAACCC returned a binding signal of 0.0474 E-score.

As to CCAGGGTA, the binding signal came to 0.0189 E-score.

Sequence AAGATTCA came in with a binding signal of 0.0971 E-score.

In turn, ATAGATGC returned a binding signal of 0.22 E-score.

ATCGTAGC returned a binding signal of -0.0487 E-score.

On to CCTAGTAC, for which the binding signal turned out to be 0.0475 E-score.
